# Results taken from PubChem BioAssay (NCATS).
# The shares of active, inactive and inconclusive entries below differ from those in the screen. No potency is given beside an inconclusive call; the fits are too rough. Activity calls are given as the source filed them. Calls follow the shape of the dose curve; as a rule, active = well fitted inhibition curve with a large enough effect; inconclusive = small, poorly fitted or top-dose-only effect; inactive = no such curve, though single readings can be large or run the other way.
# Experiment: Primary fluorescence-based thiol-reactive (MSTI) qHTS assay for identification of artifact compounds. (AID 1845221);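 also: thiol-reactive compounds lower the probe fluorescence signal; nearly all actives have a fitted effect of over 65% in size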
# Conditions: MSTI thiol-reactivity probe, 1 h; series mostly up to 53.8 µM
# Summary of the method: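 First, 4 uM MSTI in 2% DMSO/PBS pH 7.4 was dispensed; next, compounds were added; then plates sat 1 h at room temperature without light. Finally, emission at 598 nm was recorded.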
# Potency is read from the fitted curve at half-maximal effect; tags tell the direction and shape of the fitted curve.
row,Compound,Potency
1,C[C@@H]1CCC/C=C/[C@H]2C[C@@H](O)C[C@@H]2[C@@H](O)/C=C/C(=O)O1,inactive
2,COc1ccsc1CNCC[C@@]1(c2ccccn2)CCOC2(CCCC2)C1,inactive
3,C/C=C1/CN2CC[C@]34C(=Nc5ccccc53)[C@@H]2C[C@@H]1[C@H]4C(=O)OC,"inconclusive [inhibitor, partial curve]"
4,CN1CCN(c2nc3ccccc3nc2Cl)CC1,inactive
5,CCC1C2CC3C4N(C)c5ccccc5C45CC(C2C5O)N3C1O (configuration not stated),"inconclusive [inhibitor, partial curve]"
6,CC1=C[C@H]2O[C@@H]3C[C@H]4OC(=O)/C=C/C=C/C(=O)OCC/C(C)=C/C(=O)OC[C@@]2(CC1)[C@]4(C)[C@]31CO1,inactive
7,CC1=C[C@H]2O[C@@H]3[C@H](O)[C@@H](O)[C@](C)([C@@]2(CO)C[C@@H]1O)[C@]31CO1,inactive
8,CC(=O)O[C@@H]1[C@@H](O)[C@H]2O[C@@H]3C=C(C)[C@@H](O)C[C@]3(CO)[C@]1(C)[C@]21CO1,inactive
9,CC(=O)OC[C@]12C[C@H](O)C(C)=C[C@H]1O[C@@H]1[C@H](O)[C@@H](O)[C@@]2(C)[C@]12CO2,inactive
10,C=C1C(=O)O[C@@H]2[C@H]3C(=C)[C@@H](O)C[C@H]3C(=C)C[C@@H](O)[C@@H]12,active: 5.32 µM
11,CC1CCCC(O)CC(=O)Cc2cc(O)cc(O)c2C(=O)O1 (configuration not stated),"inconclusive [inhibitor, partial curve]"
12,C/C=C(/C)C1C=CC2CC(C)CC(C)C2C1/C(O)=C1\C(=O)NC(CC(C)(O)C(=O)O)C1=O (configuration not stated),"inconclusive [inhibitor, full curve]"
